Data: PubChem BioAssay AID485344 (National Center for Advancing Translational Sciences (NCATS), 2010)
Screen size: about 340,000 compounds; about 6,900 (2%) were called active. No stated cut-off is given here; in the data, active means inhibition above about 30%; inactive means below that, where a call was filed. Only a part is listed here, and it is no random draw. The source gives no active or inactive call for entries shown without one.

biological target: D(2) dopamine receptor (Homo sapiens) (UniProt P14416); assay: HTS Assay for Allosteric Antagonists of the Human D2 Dopamine Receptor: Primary Screen for Antagonists; settings: HEK293 TREx D2 cells, calcium flux, dopamine EC80; at 10 µM; stronger effect = higher value; further: 0% is about no effect
In short: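 Inhibition of EC80 dopamine-driven calcium flux, recorded kinetically, defines activity here; cells are a tetracycline-induced HEK293 T-REx line expressing force-coupled D2.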

Sequence of UniProt P14416 (P14416 whole entry, looked up): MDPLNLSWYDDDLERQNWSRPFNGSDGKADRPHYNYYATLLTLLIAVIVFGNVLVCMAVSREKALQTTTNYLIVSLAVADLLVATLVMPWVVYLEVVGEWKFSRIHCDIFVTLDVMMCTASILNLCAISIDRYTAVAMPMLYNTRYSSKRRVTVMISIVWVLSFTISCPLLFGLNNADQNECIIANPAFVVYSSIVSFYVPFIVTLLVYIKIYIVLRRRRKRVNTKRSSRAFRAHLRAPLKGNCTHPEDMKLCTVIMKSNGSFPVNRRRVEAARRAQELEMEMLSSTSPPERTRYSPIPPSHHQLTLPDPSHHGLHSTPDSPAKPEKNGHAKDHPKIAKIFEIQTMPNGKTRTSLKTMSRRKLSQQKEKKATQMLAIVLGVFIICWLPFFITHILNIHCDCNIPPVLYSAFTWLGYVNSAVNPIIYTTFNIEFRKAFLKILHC

Row | SMILES | inhibition
1 | CCOc1ccc(/C=C/C(=O)Nc2sc3c(c2C(=O)OC)C(C(=O)OC)CC3)cc1 (stereo not given) | 5.17%
2 | COc1cc(NS(=O)(=O)c2cnc(N)nc2)cc(OC)c1 | -2.59%
3 | CCOc1ccccc1CNc1ccc2cc(S(=O)(=O)N3CCC(C)CC3)ccc2n1 | 2.53%
4 | COc1ccc(-c2nn3c(=O)cc(CN4CCN(C(=O)c5ccc(OC)c(OC)c5)CC4)nc3s2)cc1 | 4.18%
5 | COc1ccc(-c2noc(N(c3nc(-c4ccc(OC)c(OC)c4)no3)c3ccccc3OC)n2)cc1OC | -2.52%
6 | CCOc1ccccc1NC(=O)c1ccc2c(Cl)c3c(nc2c1)CCC3 | 17.1%
7 | CC(C)(C)c1ccc(C(=O)Nc2ccc3c(c2)CCCN3C(=O)c2cccs2)cc1 | 13.1%
8 | CCc1ccc(NC(=O)Cn2c(=O)n(CCCCC(=O)NCc3ccc4c(c3)OCO4)c(=O)c3ccccc32)cc1 | 8.05%
9 | CC(=O)c1cc(-c2ccccc2)n(CCC(=O)NCc2ccc(C)cc2)c1C | -7.2%
10 | CN(C1CCCC1)C1CCN(C(=O)CNC(=O)/C=C/c2ccc(F)cc2)CC1 | active: 84.8%
11 | CCOc1ccccc1Nc1sc(C(=O)c2ccccc2)c(N)c1C(=O)Nc1ccccc1 | 9.73%
12 | Cc1nnc(N2CCC(C(=O)N3CCCCC3)CC2)c2nn(-c3ccc(Cl)cc3)c(C)c12 | -7.22%
13 | Cc1ccc(NC(=O)c2nc(S(C)(=O)=O)ncc2N(Cc2ccco2)Cc2cccs2)c(C)c1 | 15.8%
14 | Cc1ccc(OCC(=O)Nc2nnc(S(=O)(=O)N3c4ccccc4CC3C)s2)cc1 (stereo not given) | 15.5%
15 | Cc1ccc(C(=O)Nc2ccc(S(=O)(=O)N3CCC(c4nc5ccccc5s4)CC3)cc2)cc1 | -6.46%
16 | Cc1ccc(NC(=O)CSc2nc(=O)n(CCN3CCOCC3)c3c2CCC3)c(C)c1 | -25.1%
17 | CC(=O)N1CCc2nc3sc(C(=O)c4ccc(F)cc4)c(N)c3c(C(F)(F)F)c2C1 | -4.69%
18 | CC(=O)Nc1ccc(NC(=O)C(C)OC(=O)c2ccccc2C(=O)c2ccc(Cl)c([N+](=O)[O-])c2)cc1 (stereo not given) | active: 36.3%
19 | CC(=O)c1cccc(NC(=O)c2nc(-c3ccccc3)n(-c3cccc(Cl)c3)n2)c1 | -21.3%
20 | CCc1ccc(NC(=O)C(=O)NCC(c2cccnc2)N2CCN(c3ccc(F)cc3)CC2)cc1 (stereo not given) | -23.2%
21 | Cc1ccc(Cl)cc1NC(=O)Nc1nnc(N(C)Cc2ccccc2)s1 | 15.3%
22 | Cn1c(=O)c2c(SCC(=O)Nc3ccccc3C(F)(F)F)nc(C3CCCC3)nc2n(C)c1=O | 8.52%
23 | COc1ccc(-c2cc(C)no2)cc1S(=O)(=O)N1CCc2ccccc21 | 3.84%
24 | Cc1ccc(CN(C(=O)c2ccccc2)c2ccccn2)o1 | 20.9%
25 | O=C(O)CCCCn1c(SCC(=O)Nc2ccccc2C(F)(F)F)nc2ccsc2c1=O | -25.8%
